From PubChem BioAssay AID485364 (National Center for Advancing Translational Sciences (NCATS), 2010)
The whole screen tested about 360,000 compounds, of which about 11,000 (3.1%) were called active. The inconclusive results got no clear call from the source; some entries with a clear call stand among them for comparison. Calls follow the shape of the dose curve; as a rule, active = well fitted inhibition curve with a large enough effect; inconclusive = small, poorly fitted or top-dose-only effect; inactive = no such curve, though single readings can be large or run the other way. No potency is given beside an inconclusive call; the fits are too rough.
Also: nearly all actives have a fitted effect of over 60% in size.
Potency is read from the fitted curve at half-maximal effect; tags tell the direction and shape of the fitted curve.

What follows are compounds tested against Schistosoma mansoni thioredoxin glutathione reductase (TGR) (UniProt Q962Y6) (assay: qHTS Assay for the Inhibitors of Schistosoma Mansoni Peroxiredoxins). Details: purified TGR, DTNB reduction, TNB absorbance 405 nm; series mostly up to 114 µM.
How it was run: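 Kinetic colorimetric format: TGR-catalysed, NADPH-driven DTNB reduction monitored via TNB absorbance. Enzyme dispensed at 20 nM; compound exposure 15 min at room temperature before reaction start.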
For O=C(O)/C=C/C(=O)Nc1ccc(NC(=O)c2ccccc2)c(Cl)c1, the Potency was inconclusive [inhibitor, single point]. For O=C(NCc1ccccn1)c1ccccc1Cl, the Potency was inconclusive [inhibitor, partial curve]. For NC(=O)COC(=O)c1c2c(nc3ccccc13)CCC2, the Potency was inconclusive [inhibitor, single point]. Cc1ccc2c(CN3CCCCC3)cc(=O)oc2c1 was tested, and the Potency was inconclusive [inhibitor, full curve]. CCOc1ccc(NC(=O)NCCCN2CCN(c3ccc(F)cc3)CC2)cc1 was tested, and the Potency was inconclusive [inhibitor, single point]. In the case of O=C(c1c[nH]c(C(=O)C(Cl)(Cl)Cl)c1)c1c(F)cccc1F, the Potency is reported as “inactive”. In the case of O=C(CC1Nc2ccccc2NC1=O)NCc1cccnc1 (centres undefined), the Potency is reported as inconclusive [inhibitor, partial curve, poor fit]. For CC1CCC(NC(=O)c2nc(Cn3ccc([N+](=O)[O-])n3)no2)CC1 (centres undefined), the Potency was inconclusive [inhibitor, single point]. In the case of Cc1nnc(SCC2=C(C(=O)O)N3C(=O)C(NC(=O)C(C)n4nc(C(F)(F)F)cc4C)C3SC2)s1 (centres undefined), the Potency is reported as active: 7.08 µM. Cc1nc2c(sc3nc4c(cc32)COC(C)(C)C4)c(=O)n1CC(=O)NCc1ccco1 was tested, and the Potency was active: 39.8 µM. For COc1ccc(OCC(=O)Nc2ccc3c(c2)nc2n3CCSC2)cc1, the Potency was inconclusive [inhibitor, single point]. CCC(=O)NCCC(c1ccco1)c1ccccc1OC (centres undefined) was tested, and the Potency was active: 25.1 µM. For O=C(CCS(=O)(=O)c1cccc2nonc12)NCCc1ccccc1, the Potency was inconclusive [inhibitor, partial curve, poor fit]. In the case of CCN1CCN(c2ccc(S(=O)(=O)N3CCOCC3)cc2NC(=O)COc2ccc(F)cc2Cl)CC1, the Potency is reported as “inactive”. With O=C(NN=C1CCCCCC1)NC1CCCCC1 the Potency was inconclusive [inhibitor, single point]. CC(C)[C@H]1C(=O)Nc2ccccc2N1C(=O)N[C@@H](Cc1ccccc1)C(=O)N[C@H](C(=O)O)c1ccccc1 was tested, and the Potency was inconclusive [inhibitor, partial curve]. In the case of O=C(/C=C/Nc1ccc(Nc2ccccc2)cc1)c1cccs1, the Potency is reported as inconclusive [inhibitor, full curve]. In the case of O=C(NCc1ccon1)C1CCC(=O)N(Cc2cccc(C(F)(F)F)c2)C1 (centres undefined), the Potency is reported as “inactive”. With COc1ccc(-c2cc(C(=O)NCc3ccco3)c3ccccc3n2)cc1 the Potency was active: 39.8 µM. COc1ccc(-c2cn3nc(N4CCCC(C(=O)Nc5ccc(C)c(C)c5)C4)sc3n2)cc1 (centres undefined) was tested, and the Potency was “inactive”. With O=C(O)C1Nc2c(O)cccc2C2C=CCC12 (centres undefined) the Potency was active: 8.91 µM. NC(=O)C1(N2CCCCC2)CCN(C2CC(=O)N(CCc3ccccc3)C2=O)CC1 (centres undefined) was tested, and the Potency was inconclusive [inhibitor, single point]. In the case of C=CCN1C(=O)C(Cc2ccc(Br)cc2)S/C1=N\N=C\c1ccco1 (centres undefined), the Potency is reported as inconclusive [inhibitor, partial curve]. For C=CCNC(=O)/C(C#N)=C/c1ccc(C)o1, the Potency was inconclusive [inhibitor, full curve]. In the case of CN(Cc1nc(-c2ccc(Cl)cc2)no1)C(=O)c1ccco1, the Potency is reported as “inactive”. For CCOC(=O)c1cccc(NC2c3ccccc3C(=O)N2Cc2ccco2)c1 (centres undefined), the Potency was inconclusive [inhibitor, partial curve]. In the case of COc1cccc(C2c3c(oc4ccc(C)cc4c3=O)C(=O)N2CCCN2CCOCC2)c1OC (centres undefined), the Potency is reported as inconclusive [inhibitor, partial curve]. O=S(=O)(c1ccccc1)c1nc(Nc2cccc(O)c2)sc1Cl was tested, and the Potency was inconclusive [inhibitor, partial curve]. O=C(Nc1ccc(N2CCN(C(=O)c3cccs3)CC2)cc1)c1ccc([N+](=O)[O-])o1 was tested, and the Potency was inconclusive [inhibitor, single point]. In the case of CCC(C(=O)NCC1CCCO1)n1nc(C)c2sc3ccccc3c2c1=O (centres undefined), the Potency is reported as inconclusive [inhibitor, single point]. COc1cccc(CCNC(=O)CCc2nnc(-c3cc(C)oc3C)o2)c1 was tested, and the Potency was inconclusive [inhibitor, full curve]. COc1cccc(/C(O)=C2/C(=O)C(=O)N(Cc3ccco3)C2c2ccncc2)c1 (centres undefined) was tested, and the Potency was active: 28.2 µM. For O=C(CCNC(=O)c1ccc(Cl)cc1)Nc1ncccc1O, the Potency was inconclusive [inhibitor, full curve, poor fit]. In the case of C=CCn1c(SCC(=O)c2ccc(CNC(C)=O)o2)nc2scc(C3CC3)c2c1=O, the Potency is reported as inconclusive [inhibitor, partial curve]. Oc1ccccc1NCC(O)Cn1ccc2ccccc21 (centres undefined) was tested, and the Potency was inconclusive [inhibitor, partial curve, poor fit]. In the case of CS(=O)(=O)n1nc(OC(=O)c2cc(Br)ccc2Cl)cc1N, the Potency is reported as active: 5.01 µM. COc1ccc(N2CCN(Cc3cc(=O)oc4cc5c(cc34)CCCC5)CC2)cc1 was tested, and the Potency was inconclusive [inhibitor, full curve]. With COc1ccc(CCNC(=O)CCCn2c(=O)c3ccccc3n(Cc3ccc(F)cc3Cl)c2=O)cc1OC the Potency was “inactive”. For O=C1CC(Sc2cccs2)C(=O)N1c1ccccc1 (centres undefined), the Potency was active: 6.31 µM. With O=C1c2cccnc2C(Nc2ccccc2Br)N1Cc1ccco1 (centres undefined) the Potency was active: 22.4 µM. For CCN(c1ccc(C)cc1)S(=O)(=O)c1nnc(NC(=O)c2ccco2)s1, the Potency was active: 22.4 µM. For C/C=C\C(=O)Nc1cccc(C2=NOC3(C2)C[C@@H](C(N)=O)N(C(=O)CCCCC)C3)c1 (some centres undefined), the Potency was “inactive”. CCC1Oc2ccc(C)cc2N(CC(=O)NCc2ccco2)C1=O (centres undefined) was tested, and the Potency was inconclusive [inhibitor, partial curve]. For COC(=O)c1ccc(C2C(C(=O)c3cc4ccccc4o3)=C(O)C(=O)N2CCCN(C)C)cc1 (centres undefined), the Potency was active: 11.2 µM. For COc1ccc(Cl)cc1NC(=O)CCS(=O)(=O)c1ccc(Br)cc1, the Potency was inconclusive [inhibitor, full curve]. For O=C(NNC(=S)NC(=O)c1ccc(Br)cc1)c1cccc([N+](=O)[O-])c1, the Potency was inconclusive [inhibitor, full curve]. CN(C)/C=C1/C(=O)NC(=O)N(CCNc2ncc(C(F)(F)F)cc2Cl)C1=O was tested, and the Potency was active: 11.2 µM. Cc1ccc(C)c(OCC(=O)NNC(=O)C2CCC2)c1 was tested, and the Potency was inconclusive [inhibitor, single point]. In the case of CC(=O)Nc1ccc(S(=O)(=O)N(CCCN2CCOCC2)Cc2cccs2)cc1, the Potency is reported as inconclusive [inhibitor, single point]. For CCOC(=O)/C(N=Nc1sc(C(=O)OC)c(C)c1C(=O)OCC)=C(\O)CCl, the Potency was inconclusive [inhibitor, full curve]. OCCC1CN(Cc2ccccc2-c2ccco2)CCN1Cc1ccsc1 (centres undefined) was tested, and the Potency was inconclusive [inhibitor, partial curve]. In the case of CN(c1ccccc1)S(=O)(=O)c1cccc(NC(=O)CN2CCCc3ccccc32)c1, the Potency is reported as inconclusive [inhibitor, single point]. With CC1=CS(=O)(=O)CC1Sc1nc2ccccc2[nH]1 (centres undefined) the Potency was “inactive”. For Cc1ccc(S(=O)(=O)N2CCCN(Cc3nc4ccccc4c(=O)[nH]3)CC2)cc1, the Potency was active: 44.7 µM. With NS(=O)(=O)c1ccc(NNC(=O)c2ccccc2)cc1 the Potency was “inactive”. For COc1ccccc1Nc1nc(N)nc(CN2CCOCC2)n1, the Potency was inconclusive [inhibitor, partial curve]. O=c1[nH]c2ccc(NCc3ccccc3OCc3ccc(Cl)cc3)cc2[nH]1 was tested, and the Potency was inconclusive [inhibitor, partial curve, poor fit]. For CC(C)(CNC(=O)c1ccc(Br)o1)N1CCOCC1, the Potency was inconclusive [inhibitor, partial curve]. COc1cccc(CNC(=O)c2nn(-c3ccccc3Cl)nc2CO)c1 was tested, and the Potency was “inactive”. With CCN1CCCC1CN=Cc1c(O)n(-c2ccccc2)c(=O)c2ccccc12 (centres undefined) the Potency was inconclusive [inhibitor, partial curve]. For COc1ccc(CCNC(=O)COC(=O)c2ccc([N+](=O)[O-])o2)cc1, the Potency was inconclusive [inhibitor, full curve]. In the case of O=C(Nc1ccc(C(=O)N2CCC(N3CCOCC3)CC2)cc1)c1ccc(Br)o1, the Potency is reported as active: 31.6 µM. In the case of Cc1c(C(=O)N2CCN(Cc3ccc4c(c3)OCO4)CC2)cccc1[N+](=O)[O-], the Potency is reported as inconclusive [inhibitor, single point]. In the case of N#C/C(=C\c1ccccn1)c1nc2ccccc2s1, the Potency is reported as inconclusive [inhibitor, partial curve]. In the case of NC(=O)c1c(NC(=O)c2ccc(N3C(=O)CCC3=O)cc2)sc2c1CCCC2, the Potency is reported as inconclusive [inhibitor, partial curve, poor fit]. N#CC(C#N)=C1C=CC=CN1/C(=C\c1ccco1)C(=O)c1ccccc1 was tested, and the Potency was active: 2.82 µM. S=C(NCc1cccnc1)Nc1ccc2c(c1)OCO2 was tested, and the Potency was inconclusive [inhibitor, partial curve]. For Cc1c(C(N)=O)sc2ncn(CC(=O)N3CCC(C)CC3)c(=O)c12, the Potency was inconclusive [inhibitor, single point]. In the case of N#Cc1c(/N=C/c2c(O)n(Cc3ccco3)c(=O)[nH]c2=O)sc2c1CCCC2, the Potency is reported as active: 89.1 µM.
